Paper PMC4336329 (PLoS ONE, 2015)
The campaign covered roughly 310,000 compounds. About 2,200 (0.71%) showed an effect of 50% or more. The effect is printed as a negative number. The list shows a part of the results.

Each compound was assayed against human ether-à-go-go-related gene (hERG) potassium channel (human, UniProt Q12809) (assay: primary screen, population patch clamp on CHO cells stably expressing hERG).
Sequence of human ether-à-go-go-related gene (hERG) potassium channel (Q12809 whole entry, looked up): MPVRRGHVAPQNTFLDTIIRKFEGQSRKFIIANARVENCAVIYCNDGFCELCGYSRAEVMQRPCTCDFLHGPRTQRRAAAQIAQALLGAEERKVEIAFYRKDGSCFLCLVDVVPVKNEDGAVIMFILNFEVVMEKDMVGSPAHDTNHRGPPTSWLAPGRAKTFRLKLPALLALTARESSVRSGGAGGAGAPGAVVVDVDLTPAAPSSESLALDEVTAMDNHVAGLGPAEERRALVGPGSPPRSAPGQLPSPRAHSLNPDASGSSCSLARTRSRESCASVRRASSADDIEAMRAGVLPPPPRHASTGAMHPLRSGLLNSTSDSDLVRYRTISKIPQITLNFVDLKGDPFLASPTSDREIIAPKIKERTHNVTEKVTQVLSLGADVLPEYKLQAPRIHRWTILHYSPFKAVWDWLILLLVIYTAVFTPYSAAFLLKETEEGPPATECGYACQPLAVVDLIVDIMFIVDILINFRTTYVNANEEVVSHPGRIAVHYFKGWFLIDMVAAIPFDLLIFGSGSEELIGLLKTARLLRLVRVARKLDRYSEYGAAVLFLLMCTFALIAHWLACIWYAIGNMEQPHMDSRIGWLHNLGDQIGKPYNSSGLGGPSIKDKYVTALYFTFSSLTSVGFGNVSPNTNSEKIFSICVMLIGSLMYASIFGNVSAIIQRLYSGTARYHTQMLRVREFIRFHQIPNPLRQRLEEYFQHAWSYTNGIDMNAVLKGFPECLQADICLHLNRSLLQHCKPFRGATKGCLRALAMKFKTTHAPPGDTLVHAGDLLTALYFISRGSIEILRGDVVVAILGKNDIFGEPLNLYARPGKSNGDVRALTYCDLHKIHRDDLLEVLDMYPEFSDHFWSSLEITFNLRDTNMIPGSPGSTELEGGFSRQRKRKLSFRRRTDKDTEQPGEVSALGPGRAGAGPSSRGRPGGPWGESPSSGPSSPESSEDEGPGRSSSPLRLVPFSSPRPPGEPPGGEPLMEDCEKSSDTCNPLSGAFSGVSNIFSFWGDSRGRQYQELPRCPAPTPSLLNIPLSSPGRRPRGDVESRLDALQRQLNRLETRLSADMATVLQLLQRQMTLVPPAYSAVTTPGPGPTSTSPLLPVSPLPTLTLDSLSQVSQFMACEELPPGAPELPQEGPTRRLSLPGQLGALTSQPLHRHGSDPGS

SMILES	hERG current change (%, negative = inhibition) at 1uM [%]
CCOC(=O)N1CCN(C(=O)Cn2cc3c(n2)CCCC3)CC1	-51.2
CCN1C(=O)C(=O)N(CC(=O)Nc2ccccc2Oc2ccccc2)C1=O	12.5
CCC(=O)NCCCCCCCCCNC(=O)CC	12.7
O=C(CCNC(=O)C1CCN(S(=O)(=O)c2ccccc2)CC1)NCc1cccc(C(F)(F)F)c1	0.801
NCCCNC(=O)c1cc2ccccc2[nH]1	6.97
COc1ccc(OC)c(Cc2nnc(CCC(=O)NC3CCCCCCC3)o2)c1	1.28
CC(C)NC(=O)NC(=O)COC(=O)c1cccc(OC(F)F)c1	14.4
COc1ccc(-c2csc(NC(=O)c3cc(-c4cccs4)nc4ccccc34)n2)c(OC)c1	6.28
O=C(CN1C(=O)/C(=C\c2cccs2)SC1=S)Nc1cccc(C(=O)O)c1	5.87
CC(Sc1nnc2ccccn12)C(=O)NCc1ccc2c(c1)OCO2 (stereo not shown)	10.1
Cc1nnc(SCC(N)=O)n1CC1CCCO1 (stereo not shown)	10.8
Cc1ccccc1COC[C@H](CC(C)C)N1CCN(C(=O)c2cccc(C(F)(F)F)c2)CCC1=O	7.72
O=C(CSc1nc(O)cc(=O)n1-c1ccccc1)Nc1nc2ccccc2s1	16.7
COc1ccc(C(=O)OCC(=O)N2C(C)CCCC2C)cc1[N+](=O)[O-] (stereo not shown)	4
C/C(CCN1CCc2nc(-c3ccccc3)c(-c3ccccc3)cc2C1)=N\O[C@H](C)c1cn([C@H](CO)Cc2ccccc2)nn1	8.94
CC(C)NC(=O)c1ccccc1S(=O)(=O)c1ccccc1C#N	8.26
CCOc1cc(/C=N/Nc2nc(Nc3ccccc3)nc(N3CCCCC3)n2)ccc1OCC(=O)O	9.97
O=C(N/N=C/c1ccncc1)c1cc(-c2ccc(Br)s2)[nH]n1	6.66
Cc1cc(C)n(-c2cc(-c3ccccc3)nc(C)n2)n1	4.71
C/C(CC(=O)NC1CCCCCC1)=N\NC(=O)c1cnccn1	5.31
CN1CCN(CC#CC2(O)CCCCC2)CC1	12.9
O=C(CCCN1C(=O)c2cccnc2C1=O)Nc1ccc(Br)cc1	2.56

SMILES	hERG current change (%, negative = inhibition) at 1uM [%]
CCSc1nnc(CCNC(=O)OC(C)(C)C)o1	9.54
COc1ccc(NC(=O)CN(C)C(=O)/C=C/c2cn(-c3ccccc3)nc2-c2ccc(C)cc2)cc1	13.2
C=CCn1c(SCC(=O)Nc2ccccc2OC)nnc1-c1ccccn1	3.16
CC(=O)NC1(c2ccccc2)CCN(CC(=O)N2CCC(C)CC2)CC1	17.1
Cn1c(CSCc2ccc(F)cc2)n[nH]c1=S	13.6
Cc1cc(NC(=O)CSc2nc(=O)n3cccc(C)c3n2)no1	12.7
Cc1nc2sc3c(O)cc(=O)[nH]c3c2c(C)c1C	1.26
Cc1cc(C)cc(N(CC(=O)NC2CCCC2)S(=O)(=O)c2c(C)[nH]c(=O)[nH]c2=O)c1	11.1
COc1ccc(C2CC(=O)C3=C(C2)Nc2ncnn2C3c2ccccc2C)cc1 (stereo not shown)	-1.48
CCCC(C)NC(=O)/C=C/c1cccc([N+](=O)[O-])c1 (stereo not shown)	10.3
O=C(CSc1ncn[nH]1)c1ccco1	13.2
CN(C)C(=O)CCc1nc(-c2ccc(C(C)(C)C)cc2)no1	-5.5
COc1ccc(NC(=O)CSc2nnc(-c3cc(C)[nH]n3)n2N)cc1	15.9
O=C(NCC1CCCO1)C(c1ccc(F)cc1)N(Cc1ccc(F)cc1)C(=O)Cn1nnc(-c2cccs2)n1 (stereo not shown)	-6.35
O=[N+]([O-])c1ncn(C23CC4CC(CC(C4)C2)C3)n1	10.8
CNC(=O)CS(=O)CC(=O)Nc1cc(OCCOC)c(Cl)cc1Cl (stereo not shown)	6.96
CC(=O)Nc1ccc(OCc2ccc(S(=O)(=O)Cc3ccccc3)cc2)cc1	11.9
CCCCN(C(=O)C1CC(=O)N(Cc2ccc(C)cc2)C1)c1c(N)n(CC(C)C)c(=O)[nH]c1=O (stereo not shown)	13.2
C[C@@H]1CC=C[C@H]2[C@H]1C(=O)N(Cc1ccccc1)[C@H]2c1ccc(-c2cc3ccccc3s2)cc1F	6.66
OC(CNCCNc1ncccc1C(F)(F)F)Cn1ccc2ccccc21 (stereo not shown)	-6.1
Cc1nn(Cc2ccc(Cl)c(Cl)c2)c(C)c1NC(=O)c1cc(-c2ccco2)on1	11.1
Cc1cc(C(=O)CN2C(=O)NC3(CCCc4ccccc43)C2=O)c(C)n1C (stereo not shown)	0.755

SMILES	hERG current change (%, negative = inhibition) at 1uM [%]
O=S(=O)(c1cc(Br)ccc1Br)N1CCCCCC1	15.1
O=c1[nH]c(CSc2nc3ccccc3s2)nc2ccccc12	0.35
COc1ccc(CC(=O)OCCN(C)C)cc1.Cl	12.9
Cc1sc2nc(CN(C(=O)NCc3ccccc3)C3CCCC3)[nH]c(=O)c2c1C	7.09
COc1ccc(C(C[N+](=O)[O-])n2nc(C)cc2C)cc1 (stereo not shown)	12
O=C(CSc1nc2ccccc2s1)N/N=C/c1cc([N+](=O)[O-])ccc1O	14
CCOC(=O)c1[nH]c(C)c(C(=O)NC2CCCCCC2)c1C	1
N#CCC(=O)Nc1ccc(C(=O)OCC(=O)NCCCc2ccccc2)cc1	17.2
Cc1[nH]c2ccccc2c1C(=O)C(=O)N1CCN(c2ccccc2Cl)CC1	12
Cc1[nH]c2c(C)cccc2c1CC(=O)O	19.3
COc1ccccc1N1CCN(CCCCCCOc2ccc(F)cc2)CC1	-7.53
O=C(CCC(=O)N(CC(=O)NC1CCCC1)Cc1ccc2c(c1)OCO2)Nc1nccs1	2.19
COC(=O)c1ccccc1NC(=O)CN(c1c(C)cccc1C)S(C)(=O)=O	11.6
CCOC(=O)[C@H]1[C@H]2COc3ccc(OC)cc3[C@@H]2N2C(=O)c3cc(OC)c(OC)cc3NC(=O)[C@@]12C	5.4
COC/C=C/C1=CC2=CC(=O)C(C)(OC(=O)c3cnc4ccccc4n3)C(=O)C2=CN1CCCCO (stereo not shown)	0.707
CCN(CC)C(=O)c1ccc(O)c(OC)c1	18.1
COc1cc(/C=C2\C=CC(=O)O2)cc(OC)c1	12.2
CCC(CC)C(=O)c1c[nH]c(C(=O)NCCc2ccccn2)c1	5.3
O=C(N1CCOCC1)C(F)(F)C(=O)N1CCOCC1	6.35
COC(=O)c1ccc(NC(=S)N2CCCC2)cc1	3.26
COc1ccnc(Oc2cccc(C(F)(F)F)c2)c1C(=O)N/C=N/OCc1ccccc1F	18
CCN(CC)CC.CN1C(=O)/C(=C2/C=Cc3ccccc3N2CCCS(=O)(=O)O)SC1=S	-2.02

SMILES	hERG current change (%, negative = inhibition) at 1uM [%]
Cc1ccc(-c2noc(CCCC(=O)NC3CCCC3)n2)cc1	13.3
CC(C)(C)c1cc(C(=O)NNC(=O)c2ccc(Cl)cc2)no1	10.2
COc1cccc2cc(C(=O)c3ccc([N+](=O)[O-])cc3)oc12	4.82
CCCCOC(=O)Nc1nnc(COc2ccccc2)s1	-1.57
Cc1ccc(-c2csc3ncnc(-n4nnc5ccccc54)c23)cc1	3.11
COc1ccc(-c2noc(N3CCC(C(=O)N4CCN(c5ccccn5)CC4)CC3)n2)cc1	-1.78
C=CC[C@@H]1C=C(C)C[C@H](C)C[C@H](OC)[C@H]2O[C@@](O)(C(=O)C(=O)N3CCCC[C@H]3C(=O)O[C@H](/C(C)=C/[C@@H]3CC[C@@H](O)[C@H](OC)C3)[C@H](C)[C@@H](O)CC1=O)[C@H](C)C[C@@H]2OC	11.6
COc1ccc(CN2C(=O)c3cccc4cccc(c34)C2=O)cc1	5.18
C=CCOc1ccccc1/C=c1\sc2nc(=O)c(C)nn2c1=O	-8.97
Cc1cccc(NC(=O)c2ccc(-n3ccnc3)nc2)c1	4.79
Cc1ccccc1N(CC(=O)NCCSCc1ccco1)S(C)(=O)=O	10.4
CCOC(=O)/C=C1\SCC(=O)N1Cc1ccc(Br)cc1	10.1
CC(C)CNC(=O)CCCSc1nc2ccccc2[nH]1	-1.54
CCc1c(C)sc2nc(SCC(=O)Nc3cc(C)on3)n(CCOC)c(=O)c12	2.29
CCOc1ccc(S(=O)(=O)NCCC(=O)NCc2ccccn2)cc1	2.3
COc1ccc(Cc2nnc(NC(=O)C(C)(C)C)s2)cc1	9.59
CCn1c(CN2CCCCCC2=O)nnc1SCc1cnc(-c2ccccc2)s1	3.61
c1ccc(-c2cn(-c3ccccc3)c3ncnc(NCCCN4CCOCC4)c23)cc1	-18.7
COCCNC(=O)[C@@]1(C)C=C[C@@H](Cc2ccccc2)N1C(=O)c1ccccc1	4.15
CCCn1c(SCC(=O)NC2CCCCC2)nnc1-c1cccnc1	16.6
Cc1cc(OCCn2cncn2)ccc1[N+](=O)[O-]	10.2
O=C(C1CCOCC1)N1CCCC(N2CCN(c3cccc(C(F)(F)F)c3)CC2)C1 (stereo not shown)	10.8
